Results published in PubChem BioAssay AID248 (DTP/NCI, 2004).
Toxic doses and inconclusive results are not listed. Certain results were filed several times, with different values. The list is limited to them. There may be further records. Values that stand side by side do not match, cause unknown; dose, time, organism, isomer or construct need not be as stated for each record.

Test system: L1210 leukemia ip in BDF1 mice, survival T/C
Test: NCI In Vivo Anticancer Drug Screen. Data for tumor model L1210 Leukemia (intraperitoneal) in B6D2F1 (BDF1) mice
Details: endpoint: mean survival time, higher = longer survival

SMILES: COc1cc(NS(C)(=O)=O)ccc1Nc1c2ccccc2nc2c(C)cccc12
- T/C (dose: 10.0 mg/kg/injection, schedule: Q01DX009 (ip), vehicle: saline): 86 % of control and 179 % of control

SMILES: NC(=O)c1cn(C2OC(CO)C(O)C2O)c2ncnc(N)c12 (centres undefined)
- T/C (dose: 1.0 mg/kg/injection, schedule: Q## X003 (ip), vehicle: saline): 113 % of control and 155 % of control
- T/C (dose: 4.0 mg/kg/injection, schedule: Q## X003 (ip), vehicle: saline): 124 % of control and 184 % of control

SMILES: CC[CH2][Sn]([Cl])([Cl])[CH2]CC.Oc1ccccc1C=NCCN=Cc1ccccc1O
- T/C (dose: 10.0 mg/kg/injection, schedule: Q01DX009 (ip), vehicle: saline with Tween-80): 114 % of control and 200 % of control
